According to PubChem BioAssay AID743262 (National Center for Advancing Translational Sciences (NCATS), 2014):
Out of some 1,300 compounds screened, about 25 (2%) were called active. Inconclusive results (about 9%) are left out. The call rests on the fitted dose curve; in most records, active means well fitted activation curve with a large enough effect; inconclusive means small, poorly fitted or top-dose-only effect; inactive means flat fitted curve, though single readings scatter. The list shows a part of the results.

These compounds were tested against Glucagon-like peptide 1 receptor (Homo sapiens) (UniProt P43220) (assay: qHTS of GLP-1 Receptor Agonists: Hit Validation). Conditions: HEK293 GLP-1R, cAMP-response luciferase, 4-6 h; series mostly up to 46.1 µM; activation: at the top concentration.
Chain of UniProt P43220 (P43220 whole entry, looked up): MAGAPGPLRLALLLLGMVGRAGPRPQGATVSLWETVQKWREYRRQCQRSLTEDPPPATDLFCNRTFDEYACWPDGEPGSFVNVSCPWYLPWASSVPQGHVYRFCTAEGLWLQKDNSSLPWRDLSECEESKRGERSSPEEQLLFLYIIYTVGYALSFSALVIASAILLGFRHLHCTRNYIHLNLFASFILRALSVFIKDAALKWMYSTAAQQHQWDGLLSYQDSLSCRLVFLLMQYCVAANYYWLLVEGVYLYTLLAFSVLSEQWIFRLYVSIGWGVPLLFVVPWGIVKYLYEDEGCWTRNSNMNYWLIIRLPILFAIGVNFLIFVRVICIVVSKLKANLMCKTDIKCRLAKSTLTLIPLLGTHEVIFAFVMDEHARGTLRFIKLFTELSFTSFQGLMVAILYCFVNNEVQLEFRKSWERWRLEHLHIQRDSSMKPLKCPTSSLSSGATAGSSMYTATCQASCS
In short: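 Stably transfected HEK293 cells co-expressing GLP-1R and a cAMP-responsive luciferase reporter, plated 12 h before compound. Compound exposure 4-6 hr at 37 deg C, 5% CO2; luciferase luminescence read after 12 min detection at RT.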
Further: % of control where 0% means no effect.

activation, inactive:
COc1ccc(C2=NN(C(=O)CSc3nc4ncc(Cl)cc4[nH]3)C(c3ccco3)C2)cc1 (stereo not given) 11.5%
COc1ccccc1/C=N/OCc1ccc(C#N)cc1 2.31%
CCSc1cc(N2CCCC2)nc(-c2ccccc2)n1 1.33%
NC(=O)CSc1nc2ccccc2n1Cc1ccccc1F 1.7%
CC(=O)Nc1cc(-c2cccc(C)c2)cn2c(-c3ccc(S(C)(=O)=O)cc3)cnc12 23.2%
Cc1nc(C(=O)N2CCc3c([nH]c4ccccc34)C2c2cc(F)ccc2F)cs1 (stereo not given) -0.68%
COc1ccc(-c2cc(C(F)(F)F)n3ncc(C(=O)N(C)Cc4ccccc4)c3n2)cc1 13.9%
COc1cc2c(cc1OC)CN(C(=O)c1oc3ccccc3c1C)CC2 3.46%
CC1CCN(CC(=O)n2c3c(c4ccccc42)CCCC3)CC1 1.05%
O=C1C2C3C=CC(CC3)C2C(=O)N1/N=C/c1ccccc1O (stereo not given) -0.753%
Cc1ncsc1CCSc1nc2ccccc2c(=O)n1C 9.28%
C/C(=N\NC(=S)NCCc1ccccc1)c1ccc(Cl)cc1 7.83%
COC(=O)CSc1nnc(-c2ccc(OC)c(OC)c2)o1 3.18%
Cc1onc(-c2ccccc2Cl)c1-c1nc(-c2ccncc2)no1 13.2%
CCc1ccc(C(=O)COC(=O)c2cc([N+](=O)[O-])ccc2N2CCOCC2)cc1 14.8%
CSc1ccc(CN2CCC2(C)C(=O)NCc2ccc3c(c2)OCO3)cc1 (stereo not given) 2.83%
Cc1cc(C)n2ncc(C(=O)NCCc3ccccc3)c2n1 4.32%
CC1(C)CC(=O)C2=C(C1)N(CC1CCCO1)C(=O)NC2(C(F)(F)F)C(F)(F)F (stereo not given) -1.07%
COc1ccc(NC(=O)C2(C)Cc3c(-c4ccc5c(c4)OCO5)ccnc3O2)cc1 (stereo not given) 13.3%
O=C(CSCc1ccccc1F)NCc1ccc(F)cc1 -0.427%
O=C(COc1cccc([N+](=O)[O-])c1)N/N=C/c1ccco1 -0.398%
CN(C)S(=O)(=O)N1CCN(S(=O)(=O)N(C)C)CC1 -0.605%
Cc1c(NC(=O)C(C)OC(=O)c2c3c(nc4ccccc24)CCC3)c(=O)n(-c2ccccc2)n1C (stereo not given) -0.292%
COc1ccc(/C=N/NC(=O)Cc2ccc(Cl)cc2)cc1OC 9.44%
Cc1nc(SCc2nc3ccccc3[nH]2)c2oc3cc(Br)ccc3c2n1 15.9%
CCCCCCNc1cc2n(c(=O)n1)CCc1cc(OC)c(OC)cc1-2 27.4%
COCCN(Cc1ccccc1)C(=O)c1cc(-c2ccc(OC)c(OC)c2)nc2ccccc12 23.1%
CCOc1ccc(NC(=O)CCSc2nc(-c3ccc4c(c3)OCO4)cc(C(F)(F)F)n2)cc1 0.299%
CCCCC(=O)Nc1ccc2oc(-c3cccnc3)nc2c1 2.85%
COc1ccc(-n2c(SCc3cn4c(C)cccc4n3)nc3ccccc3c2=O)cc1OC 22.2%
